Consider 78 compounds from the supplement of paper PMC6135742.

Where a name gives a salt, the structure may show the parent alone. ± gives the standard deviation of the averaged measurements. Whole data set: some 2,600 compounds, median “total cell number (DAPI+ nuclei) relative to DMSO vehicle control” near -1.4, cut for the lowest 2% near -23. The list shows a part of the results.

This experiment relates to jimpy (Plp1 jimpy) mouse iPSC-derived oligodendrocyte progenitor cells. The experiment can be described thus: total cell number (DAPI+ nuclei) relative to DMSO vehicle control (SDs above negative control mean); higher = more surviving cells. The conditions noted are these: 10 µM; 3 days. As to the method:
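Primary phenotypic screen of >3,000 bioactive compounds (Selleck L1700 and Sigma LO1280 libraries) at a single dose of 10 µM. Compounds were added to jimpy (Plp1 mutant) mouse iPSC-derived OPCs at the start of thyroid hormone-induced oligodendrocyte differentiation, one well per compound in 384-well plates. After 3 days cells were stained for MBP, Sox10 and DAPI and imaged with an Operetta system. MBP+ oligodendrocyte number and total cell number were expressed as the number of SDs above the mean of the DMSO negative control on the same plate (n=16 control wells per plate). Hits were defined as >=4 SD for oligodendrocytes and >=2 SD for total cells.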
`CC(C)NC[C@H](O)c1ccc(O)c(O)c1` [R(-)-Isoproterenol (+)-bitartrate] had a total cell number of -1.51. Next, `COC[C@H](NC(=O)c1cnc(C)s1)C(=O)N[C@@H](COC)C(=O)N[C@@H](Cc1ccccc1)C(=O)[C@@]1(C)CO1` [Oprozomib (ONX 0912)]: -12.7; `NCCS(=O)O` [Hypotaurine]: -1.25; `N[C@@H](C(=O)N[C@@H]1C(=O)N2C(C(=O)O)=C(Cl)CS[C@H]12)c1ccccc1` [Cefaclor]: -0.554. Next, `CCN(c1cc(-c2ccc(CN3CCOCC3)cc2)cc(C(=O)NCc2c(C)cc(C)[nH]c2=O)c1C)C1CCOCC1`: 2.45. The figure for `Cn1c([N+](=O)[O-])cnc1COC(N)=O` [Ronidazole] is 1.61; for `O=C(O)CC1CC(c2ccccc2)=NO1` (stereo not drawn) it is -1.37; for `CN(C)[C@@H]1C(O)=C(C(N)=O)C(=O)[C@@]2(O)C(O)=C3C(=O)c4c(O)ccc(Cl)c4[C@@H](O)[C@H]3C[C@@H]12` [Demeclocycline hydrochloride] it is -4.15. On to `CCOC(=O)c1c(C)n(C)c2ccc(O)cc12` [Mecarbinate], for which the total cell number was -4.47. The figure for `COc1ccc(C[C@@H]2c3cc(OC)c(OC)cc3CC[N@+]2(C)CCC(=O)OCCCCCOC(=O)CC[N@@+]2(C)CCc3cc(OC)c(OC)cc3[C@H]2Cc2ccc(OC)c(OC)c2)cc1OC` [Cisatracurium Besylate] is -3.12; for `Fc1cc(-c2cccc3ncc(-c4cnn(C5CCNCC5)c4)nc23)cc(F)c1CN1CCOCC1` it is -12.4; for `CC(N)C12CC3CC(CC(C3)C1)C2` (stereo not drawn) [Rimantadine] it is -0.509. The figure for `CN(CCOc1ccc(CC2SC(=O)NC2=O)cc1)c1ccccn1` (stereo not drawn) [Rosiglitazone] is -0.603. Consider `OC(CCN1CCCCC1)(c1ccccc1)C1CCCCC1` (stereo not drawn) [Trihexyphenidyl hydrochloride], for which the total cell number was -2.06. The figure for `N=C(N)N/N=C/c1c(Cl)cccc1Cl` [Guanabenz Acetate] is -0.8. The figure for `N=C(N)N/N=C/c1c(Cl)cccc1Cl` [Guanabenz acetate] is -1.55; for `Cc1ccc2c(Cl)cc(Cl)c(O)c2n1` [Chlorquinaldol] it is -12.5; for `C[C@H](Oc1cc(-c2cnn(C3CCNCC3)c2)cnc1N)c1c(Cl)ccc(F)c1Cl` [(S)-crizotinib] it is -15.7. Next, `CN(C)CCOC(=O)COc1ccc(Cl)cc1` [Centrophenoxine hydrochloride]: -1.85; `Brc1c(NC2=NCCN2)ccc2nccnc12` [Brimonidine Tartrate]: 1.64; `Brc1c(NC2=NCCN2)ccc2nccnc12`: -0.106.

On to `Nc1cccc2c1CN(C1CCC(=O)NC1=O)C2=O` (stereo not drawn) [Lenalidomide (CC-5013)], for which the total cell number was -3.95. The figure for `NC(=S)N/N=C/c1ncccc1N` [Triapine] is -11.7. The figure for `COc1ccc2[nH]c([S+]([O-])Cc3ncc(C)c(OC)c3C)nc2c1` (stereo not drawn) [Omeprazole] is 5.38.

`O=C(Nc1ccc(-c2ccnc(Nc3ccc(N4CCOCC4)cc3)n2)cc1)C1CCCN1` (stereo not drawn): the total cell number is -12.4. Next, `CCS(=O)(=O)Nc1ccc2c(c1)/C(=C(/Nc1ccc(CN3CCCCC3)cc1)c1ccccc1)C(=O)N2` [Hesperadin]: -17.7.

In the case of `Cc1ccccc1N1C(=O)c2cc(S(N)(=O)=O)c(Cl)cc2NC1C` (stereo not drawn) [Metolazone], the total cell number was -1.3 ± 1.5. The figure for `CN(C)CCC(c1ccc(Br)cc1)c1ccccn1` (racemic) [(±)-Brompheniramine maleate] is -1.71.

Consider `Cc1cc(-n2c(=O)[nH]c(=O)n(C)c2=O)ccc1Oc1ccc(SC(F)(F)F)cc1` [Toltrazuril], for which the total cell number stood at 0.165. `CCCn1c(=O)c2[nH]c(-c3ccc(S(=O)(=O)O)cc3)nc2n(CCC)c1=O` [1,3-Dipropyl-8-p-sulfophenylxanthine] gave a total cell number of -1.78. Next, `[I-].[K+]` [Potassium Iodide]: -1.15. Compound `O=C1N(c2ccccc2)c2ccccc2C1(Cc1ccncc1)Cc1ccncc1` [Linopirdine] yielded a total cell number of -0.877.

As to `O=C(NS(=O)(=O)c1ccc(Br)s1)c1ccc(Cl)cc1Cl` [Tasisulam], the total cell number was -1.99. The figure for `OCCOCCN1CCN(C(c2ccccc2)c2ccc(Cl)cc2)CC1` (stereo not drawn) [Hydroxyzine 2HCl] is 1.55; for `COc1ccc(CNC(=O)Nc2ncc([N+](=O)[O-])s2)cc1` it is 1.19.

Turning to `Cc1nc(N)sc1-c1ccnc(Nc2ccc(N3CCOCC3)cc2)n1`, the total cell number was -22.6. Next, `C[C@]12CC[C@@H]3c4ccc(O)cc4CC[C@H]3[C@@H]1C[C@@H](O)[C@@H]2O` [Estriol]: -1.95; `C[C@@H]1CN(CC(=O)Nc2ccc3c(c2)Cc2cccc(-c4cc(=O)cc(N5CCOCC5)o4)c2S3)C[C@H](C)O1`: -10.9; `CCc1cccc2c3c([nH]c12)C(CC)(CC(=O)O)OCC3` (stereo not drawn) [Etodolac]: -0.872 ± 0.45.

The compound `O=CN(O)CCCP(=O)(O)O` [Fosmidomycin sodium salt hydrate] had a total cell number of -1.12. Next, `Cc1noc(NS(=O)(=O)c2ccc(N)cc2)c1C` [Sulfisoxazole]: -1.12; `CCC[C@H](NC(=O)[C@@H]1[C@H]2CCC[C@H]2CN1C(=O)[C@@H](NC(=O)[C@@H](NC(=O)c1cnccn1)C1CCCCC1)C(C)(C)C)C(=O)C(=O)NC1CC1` [Telaprevir (VX-950)]: -2.19. In turn, `C=CC(=O)N1CCC[C@@H](n2nc(-c3ccc(Oc4ccccc4)cc3)c3c(N)ncnc32)C1` came in with a total cell number of -8.95. The figure for `CC(=O)N1CCN(CCOc2ccc(C3CCN(C4=Nn5c(nnc5C(F)(F)F)CC4)CC3)cc2)CC1` is 0.0683; for `CC1=C(CC(=O)O)c2cc(F)ccc2/C1=C\c1ccc([S+](C)[O-])cc1` (stereo not drawn) [Sulindac] it is -1.2 ± 0.33; for `C=CC(=O)Nc1ccc2ncnc(Nc3ccc(OCc4cccc(F)c4)c(Cl)c3)c2c1` it is -12.9. Next, `NOCC(=O)O` [O-(Carboxymethyl)hydroxylamine hemihydrochloride]: 1.52; `CCOC(=O)[C@H](CCc1ccccc1)N[C@@H](C)C(=O)N1CCC[C@H]1C(=O)O` [Enalapril Maleate]: -1.54.

Compound `NC[C@@H]1O[C@H](c2ccccc2)Cc2c1ccc(O)c2O` yielded a total cell number of -2.54. The figure for `CNC(=O)[C@H](Cc1ccccc1)NC(=O)[C@H](CC(C)C)[C@H](CSc1cccs1)C(=O)NO` [Batimastat (BB-94)] is -10.5; for `CNC(=O)Nc1ccc(-c2nc(N3CC4CCC(C3)O4)c3cnn(C4CCC5(CC4)OCCO5)c3n2)cc1` it is -8.93. Next, `CN1CC2c3ccccc3Oc3ccc(Cl)cc3C2C1` (stereo not drawn) [Asenapine]: -10.5; `COC1=C2C[C@@H](C)C[C@H](OC)[C@H](O)[C@@H](C)/C=C(\C)[C@H](OC(N)=O)[C@@H](OC)/C=C\C=C(/C)C(=O)NC(=CC1=O)C2=O` [Geldanamycin]: -12.3. The figure for `CCC(CC)CC1(C(=O)Nc2ccccc2SC(=O)C(C)C)CCCCC1` is -1.86; for `CN1[C@@H](CC(=O)c2ccccc2)CCC[C@H]1C[C@H](O)c1ccccc1` [alpha-Lobeline hydrochloride] it is -1.52; for `Cn1cc(-c2ccc3nnc(C(F)(F)c4ccc5ncccc5c4)n3n2)cn1` it is -3.9.

For `c1ccc2[nH]c(-c3cscn3)nc2c1` [Thiabendazole], the total cell number was 0.92. The figure for `COc1cc(C(O)C(=O)O)ccc1O` (racemic) [(±)-Vanillylmandelic acid] is -0.443.

As for `CC(=O)C(C)=O` [2,3-Butanedione], the total cell number was -1.17.

With `CSc1nc(N)c2ncn([C@@H]3O[C@H](COP(=O)(O)OP(=O)(O)OP(=O)(O)O)[C@H](O)C3O)c2n1` (stereo partly drawn) [2-Methylthioadenosine triphosphate tetrasodium], the total cell number came to 1.81.

For the compound `Cn1c(=O)cc(N2CCC[C@@H](N)C2)n(Cc2ccccc2C#N)c1=O` [Alogliptin], the total cell number is -1.27. Next, `CC1(C)S[C@@H]2[C@H](NC(=O)[C@H](NC(=O)N3CCN(S(C)(=O)=O)C3=O)c3ccccc3)C(=O)N2[C@H]1C(=O)O` [Mezlocillin Sodium]: 0.711. For `CCCCCCCN(CC)CCCC(O)c1ccc(NS(C)(=O)=O)cc1` (stereo not drawn) [Ibutilide Fumarate], the total cell number was 0.306. `Cc1nnc(C(C)C)n1C1C[C@H]2CC[C@@H](C1)N2CC[C@H](NC(=O)C1CCC(F)(F)CC1)c1ccccc1` (stereo in doubt) [Maraviroc] registered a total cell number of -0.465 ± 0.011.

As for `COc1cc(Nc2ncc(F)c(Nc3ccc4c(n3)N(COP(=O)(O)O)C(=O)C(C)(C)O4)n2)cc(OC)c1OC` [Fostamatinib (R788)], the total cell number was -11.3.

`COc1ccc(-c2cc(=O)c3c(O)cc(O[C@@H]4O[C@H](CO[C@@H]5O[C@@H](C)[C@H](O)[C@@H](O)[C@H]5O)[C@@H](O)[C@H](O)[C@H]4O)cc3o2)cc1O` [Diosmin] had a total cell number of -1.95. The figure for `O=C(Nc1ccc2c(c1)CCN(Cc1ncn[nH]1)C2)c1ccccc1-c1ccc(C(F)(F)F)cc1` is -0.98; for `CCOC(=O)C1=C[C@]2(CC)CCCN3CCc4c(n1c1ccccc41)[C@@H]32` [Vinpocetine] it is -1.4; for `CC(C)c1cc(C(=O)N2Cc3ccc(CN4CCN(C)CC4)cc3C2)c(O)cc1O` it is -25.7. In turn, `Cc1cccc(CN2CCN(C(c3ccccc3)c3ccc(Cl)cc3)CC2)c1` (stereo not drawn) [Meclizine 2HCl] returned a total cell number of -17.9. `CC(C)Cc1ccc(C(C)C(=O)O)cc1` (racemic) [(±)-Ibuprofen] came in with a total cell number of -0.452. The figure for `COc1cnc(NS(=O)(=O)c2ccc(N)cc2)nc1` [Sulfameter] is -2.94; for `COc1cc(CCC(C)=O)ccc1O` [Vanillylacetone] it is 2.45; for `O=NN(CCCl)C(=O)NC1CCCCC1` [Lomustine] it is -4.15.

Compound `CC1CNCCN1S(=O)(=O)c1cccc2cnccc12` (stereo not drawn) registered a total cell number of -1.12. The figure for `CNCCC(Oc1ccccc1OC)c1ccccc1` (stereo not drawn) [Nisoxetine hydrochloride] is -1.44; for `CCCCCCCC/C=C\CCCCCCCC(=O)NCCc1ccc(O)c(O)c1` [N-Oleoyldopamine] it is -10.6. Next, `CCCCCCCCc1ccc(CCC(N)(CO)CO)cc1` [Fingolimod (FTY720) HCl]: -16.4.
